The full ranking holds about 4,500 sequences; the median of “median log2 fold change of GCK-ALFA target abundance (FLAG IP / Myc IP barcode read proportion)” is about 0.078, and the lowest 2% start at about -0.6. Some of the results follow.
B1: GBRAP_160_4443 (protein)
chain: SEELEKLKEEIKEILEEALEMMKGQNLAERLAILRVAQGEIILVAEESSIMSDEDIEKIDEIMEELIATIEANPDLTDEELEALIEEALEKIFEIIEEAE
B2: GBRAP_80_6792 (protein)
chain: AEAELAAHLAEIAALDPEIAARVAAIVARARALGVPAETLAEFARAIAELLKVDKEEAREIVEELEEELREEEERGDTANAEATLRVHAGEALLEVEELE
B3: GBRAP_11_2871 (protein)
chain: KKEKLEELAKLARELAKLIDELLKEGVDNEKLRAEIEKKLEELTELVKKHADKASQKLAEIAKELWKKAKADPEKAEEYYKELLATVRVLEGQFLLDIEE
B4: GBRAP_128_3595 (protein)
chain: SVEEVRAWTRAQLAAMKTADAATRRAIADEIMARFLTLSLEEREALVETIEELAPELTAEDLEILADAARAARPQADPEGANLLADLEVELLNEALEKEE
B5: GBRAP_11_2880 (protein)
chain: KKEALKKIAELAREIAKLIDKLLKEGVDNEELLKEIKEKVEELKKLVEEEADESLKKLAEIAAELLKKALADPANREKYLKELRATVEVLEGQALLEYEE
B6: GBRAP_184_5226 (protein)
chain: TLENRAVEAETAEEAIKKSDEVVAEAAAAGKKLNLVVIGKNLSLEEVEKVAAYLASLKDAGKVESATLVVEDEVSEEELDKLVAIADKYGVRLVVALSEE
B7: GBRAP_128_3487 (protein)
chain: SLEEVKAKTEALMEKIIASTVEEAKKLTAELVALIGTLNEEEREAAEEVFVKHLPKLTEEKLEAVEETLREEMPKLDPESANVVAGLAVEAGQELLELEE
B8: GBRAP_52_5909 (protein)
chain: MEEELRELARRMLAAVKAGDEERAREIAREVAETLNDEELEKFIEVVEELVLEAPREELPYYERLAEIVAEELERAGKDEVLADLLLSRVAAAIYKVLQR
B9: GBRAP_80_6778 (protein)
chain: ALEEAKAAIKELAKLDKEFAKRAKKILKKLEEKGASEETFKAFAEAVKAIAELLKLGLKEEAKRLLEEMEEATEIEDQEERTAVFRGIAGEALLEVEEAE
B10: GBRAP_128_3289 (protein)
chain: ASEELLKKTKELLEKIKNSDKEEAKKYAEELAELIKNSTVEEAEAIAEIVEEKLPELSKEDLEILAEVLDKKRPEFDPEKAAIVAGIADDALLLAEELEE
B11: GBRAP_128_3209 (protein)
chain: SVEEVAAEVRKLLEEIKAADEEEREKLARELAELVLNSTVEEARAAAEVVEELAPELSEEDLEILARAFDEAARKTDTEVALELLDISIIAGQAILELEE
B12: GBRAP_78_6702 (protein)
chain: EVEEKIEEAIRKLNEAAKLLVDLGTELANDLLGKLVDAMTLLEEAEEEGADLKKLEEALKELKEALKLAKKLDVPEKPEIIKKLEEAIKLVEEAIKELKK
B13: GBRAP_52_6121 (protein)
chain: MKAEKAALVKEILALVKAGKLEEARAKIKEFVEKANDEELEIFAEELAAAAAEAAPADWDAVWRLAEMIAEEMEEAGKDEVLVDDLLARVAAALHARELA
B14: GBRAP_160_4238 (protein)
chain: SEEIEKLREEITDEAELLLDVLLESPKSQWPAYARAFAGDIVQIVEENENVSDETEEKVAELADEMVAELVAARDASPEELAALLERFVERIVKTVEEGV
B15: GBRAP_160_4614 (protein)
chain: SEKMEKLKKEVKELFKEAKEMIEGETPENRAAIVDVTFGQIILEAEELGVLSDEALEKIDEIGDEVVAHIRANPDLTDEEVKKLIEEAEKKILEIIKEEE
B16: GBRAP_52_6204 (protein)
chain: MRERMRRLARELVALVLAGDEEGARALARRIVEELDEEELRLLGEELVELAREAAPEDLDAIFRAAEILSEELERGGRPEELADGLLNRVAAALYERELR
B17: GBRAP_52_5869 (protein)
chain: ELEEAVKLLEEAVEAMLAGKEEEAKKLLKEIVETFSDETILKAVEKLAEEVLEKSLEEAEAFFKTAELLSDIMIEAGRDENIASYIEAIAGAALYKVEQK
B18: GBRAP_184_5289 (protein)
chain: MVEEVVIEAENAEEAIKKIKEAAEKAKKEGKKLRLYLFLKNVDVEGFKKIAELLKELKEEGIIEDAIVEILDERTEEETDKFVEIADKAGIRLVIALSDE
B19: GBRAP_9_7139 (protein)
chain: MKEVIDKLIELAEEAKEDALKVAPEDKKPIVKEAFDKFIDKLKELKKNPNTTKEEIKETVETSLKEIKETFKKNFDPETYKMLLAIILTFEVEAEEIIEE
B20: GBRAP_128_3433 (protein)
chain: SEEEKLAKAKELIDKALTASVEEVYELTKEFMKVFGTLSKEAREEVAAYAISQLPKLSKEQLEAVADAIREMLPELDPYAQEEAADVLVEALNEAEELEE
B21: GBRAP_52_6108 (protein)
chain: MREEAEKLVEELLELVKEGKLEEAKKLIREVVAKWNDEELRILGEAIAERAKEAAPEDFDAIWKLAEMVAEAMEEAGKDEVLVDDLEAEVAAALYERELR
B22: GBRAP_80_6771 (protein)
chain: MEEEIEKVLKEIEEIDKEVAKLVKEAIKVAKELGVSDELILEFAKAVLELTKLDKEKARKIVEEALKELKEALKEGDKEAAVGILVDAISEALLEVEELE
B23: GBRAP_166_4944 (protein)
chain: AKAEVLAALRAAIAAFAANVAALDEEARLDALIEIGELVRAALEAGASDEEIVAAIGEVLEAAQAAGFDPAVAAGIIANVADVSEELEDKIWERVDELKK
B24: GBRAP_52_5946 (protein)
chain: SAAEVAALAEAFVAAAEAGDEAAARAVLLRAARELDEAGLRAFARRLGELLKGRSVEVQEFALEVILEVEDELEALGVSPEVVADLQAEAARALYEALQA
B25: GBRAP_128_3509 (protein)
chain: SMEEAVARTRELMAAIAEADAEEAAALTAELVELMASVDDETAEAMADVAEELLPKLSKEKLDVVADTLEALRPTVDPYKANLLAGIAVAALNEAEELEE
B26: GBRAP_125_3145 (protein)
chain: KREAVLALARALAEALGFSEEEIAEIEELAEASDPEQTVVAILLAAGFEEAAEVAAKVLPKLTEEEIEELKALAEELKDAPLEEVKAAILAKLEELLAKL
B27: GBRAP_160_4610 (protein)
chain: SEKKKEFKKEVEEEFEEAKEMIEGESIEQRANIVDVTIGEIIIEADELEVVSDESLDKIDEIRDEVVSTILANPDLTDEEIKALIEEAREKILKIIEEDE
B28: GBRAP_74_6534 (protein)
chain: SDELVAAIVEAIRAGRVDEAVALLEEAIATEDEEEKVRALLAAARAVVEHRDRLTPEQILRLADALVRLRDSIDDELLTDEAWDAFAAVLAAALAAEQAR
B29: GBRAP_79_6747 (protein)
chain: GVEEARRALVEALRVVLPDLTEEEAAEAVASDEALRAALLRAGISEEMAAELLEAIDAIPELAAERFRRTVERMEGLEPEDRRDVLEATIAAVIYEAEQR

Biological target: GABARAP, O95166
Sequence (O95166 whole entry, the tested form may be a part): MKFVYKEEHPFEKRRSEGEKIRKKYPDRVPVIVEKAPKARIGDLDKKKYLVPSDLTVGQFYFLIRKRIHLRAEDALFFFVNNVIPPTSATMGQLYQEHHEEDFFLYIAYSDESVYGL
Experiment: median log2 fold change of GCK-ALFA target abundance (FLAG IP / Myc IP barcode read proportion) (log2 ratio); each designed protein is fused to an ALFA-tag nanobody in HEK293 cells to bring the named protein to FLAG-tagged glucokinase (GCK); Myc marks an untargeted standard; higher = target protein stabilised (more abundant)
Conditions: target protein: 3xFLAG-MCP-GCK-ALFA reporter; HEK293 landing pad (RPLP)
In short: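 Binders fused to an ALFA nanobody were recombined as a library into HEK293 landing-pad cells, which were induced with 2 μg mL^−1 doxycycline and then transfected to express a FLAG-tagged target and a Myc-tagged standard. After 48 h, circular RNA barcodes recovered by anti-FLAG and anti-Myc immunoprecipitation of lysates were reverse transcribed, amplified and sequenced. Each binder's target abundance is the median log2 ratio of FLAG to Myc barcode read proportions, from barcodes present at ≥10^−7 in both replicates, binders carrying ≥3 barcodes per replicate, a 10^−6 pseudocount and pooled replicates.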

Binder | median log2 fold change
B1 | -0.246
B2 | -0.0698
B3 | 0.361
B4 | -0.0227
B5 | 0.0572
B6 | 0.0236
B7 | -0.0357
B8 | 0.188
B9 | 0.189
B10 | 0.183
B11 | -0.185
B12 | 0.392
B13 | 0.0518
B14 | -0.458
B15 | -0.25
B16 | 0.0849
B17 | 0.00962
B18 | -0.121
B19 | 0.279
B20 | 0.207
B21 | 0.195
B22 | 0.194
B23 | -0.219
B24 | -0.0933
B25 | 0.172
B26 | 0.0148
B27 | -0.247
B28 | 0.00205
B29 | 0.209
